# According to PMC12136788:
# The other results are listed elsewhere or left out.
# B1: chr11:9429001:9429102:+|CDS|ENSG00000205339|msi1_unk|FALSE|overlapping (ssRNA)
# RNA: GGGAGUUCUACAGUCCGACGAUCGGUACUUCACUAUUUUUGUGAAGUGAAGUUCAAAAGUGAUCAGAACCUUCAAACAGCCUUAGAGCUAACAAGAAGAUGUCUGAUUGAUGAUAGAGAAAUGCCUGUGAAAGUGGAAGCUGCCAACAGAGGAUUGAGCAUCA
# B2: chr5:72208420:72208520:+|3pUTR|ENSG00000131711|msi1_unk|total|mutant (ssRNA)
# RNA: GGGAGUUCUACAGUCCGACGAUCCUCAUGAUCAUGACCUUUUUGGCCGUAUUCUUAAACAAAAUUCUACAGAGACUAAAUGUCCGCGAUGAUCCUCCAUUUUCAAUUUUAACCAAUUCUGUCCCCUUUCUCAAAACCCUGAGCCAACAGAGGAUUGAGCAUCA
# B3: chr1:183252010:183252124:-|3pUTR|ENSG00000157064|unk|total|mutant (ssRNA)
# RNA: GGGAGUUCUACAGUCCGACGAUCUCUUUGUUCACUCCCUGCCGAACUUGGAUGAAAUCAGUGUCCAUGGUUCUUUAUGUUUGCCGUCUUGAUGUGCUCCUGUGGUAUUACUUCCCCUCUGACCGGACAUUGCCGCCAGCCUCACAACAGAGGAUUGAGCAUCA
# B4: chr6:107883018:107883119:-|CDS|ENSG00000025796|unk|total|mutant (ssRNA)
# RNA: GGGAGUUCUACAGUCCGACGAUCAAGGAAGAUGAAGAAGAAGUUUCAGAUAAGGGCAGUGAUUCUGAAGAAGAAGAAACCAACCGAGAUUCCCAAAGUGAGAAAGAUGAUGGCCGUGACAGAGACUCUGACCGAGAGCAAGAUCAACAGAGGAUUGAGCAUCA
# B5: ENSG00000198589:be:win_5651|CDS|ENSG00000198589|bound_else_gene|NA|bound_elsewhere_windowed (ssRNA)
# RNA: GGGAGUUCUACAGUCCGACGAUCUUAGCCAGACAAUGAAGGAUCAUCUAGUAAGAGUAGCAAAUGAAGCUGAAUUUAUCCUGAGCAGGCAGAGAGCAGAAGAUAUUCACAGACAUGCGGAAUUUGAGUCACUGUGUGCCCAGUCAACAGAGGAUUGAGCAUCA
# B6: chr11:2397021:2397122:+|3pUTR|ENSG00000110651|msi1|total|mutant (ssRNA)
# RNA: GGGAGUUCUACAGUCCGACGAUCUUGGGGUUUUGUUUUUGUUCUGAACUUUCCUGUUACCUUUUCAGGGCUGACGUCACAUGCCGGUGGCGUGUAUGAGUGGAGACGGGCCUGGGUCUUGGGGACUGGAGGGCAGGGGUCCUUCAACAGAGGAUUGAGCAUCA
# B7: ENSG00000107863:be:win_5101|CDS|ENSG00000107863|bound_else_gene|NA|bound_elsewhere_windowed (ssRNA)
# RNA: GGGAGUUCUACAGUCCGACGAUCGAUACUCUUUCCAGGAAAAAAUCAGCUAGAUUCAAGUCAGAUAGUGGAAGUCUAGGAGAUGCCAAGAAUGAGAAAGAAGCACCUUCGUUAACUAAAGUGUUUGAUGUUAUGAAAAAAGGACAACAGAGGAUUGAGCAUCA
# B8: chr12:68839811:68839877:+|CDS_3pUTR|ENSG00000135679|msi1_unk|total|mutant (ssRNA)
# RNA: GGGAGUUCUACAGUCCGACGAUCAUAAGCCCUGCCCAGUAUGCCGACAACCAAUUCAAAUGAUUGUGCUAACUUAUUUCCCCCCGUUGACCUGUCUAUAAGAGAAUUAUAUAUUUCUAACUAUAUAACCCCCGGAAUUCCGACCAACAGAGGAUUGAGCAUCA
# B9: ENSG00000175470:stop:overlap|stop_codon|ENSG00000175470|stop_codon|NA|stop_codon (ssRNA)
# RNA: GGGAGUUCUACAGUCCGACGAUCACAAUGUCAUUGCCGUGGCUGCCACCAAUAACUUGUACAUAUUCCAGGACAAAAUCAACUAGAGACGCGAACGUGAGGACCAAGUCUUGUCUUGCAUAGUUAAGCCGGACAUUUUUCUGUCAACAGAGGAUUGAGCAUCA
# B10: chrX:54470015:54470457:-|CDS|ENSG00000102302|control|control|control (ssRNA)
# RNA: GGGAGUUCUACAGUCCGACGAUCUUCGUCAGUGAUGACGGGCCCCCCAGCCACAGCCUCUGCCCUGGGCCCCCUGCCCUGGCUAGUGUGCCUGUUGCCUUGGCCGACCCCCACCGGCCUGGCUCCCAAGAGGUUGACAGUGACCAACAGAGGAUUGAGCAUCA
# B11: chr12:66123492:66123593:-|3pUTR|ENSG00000139233|msi1|FALSE|unique (ssRNA)
# RNA: GGGAGUUCUACAGUCCGACGAUCAUGCUACCCAAUAUCCAGUUAUAAUCAGGCCUCAACGUUCUGUCAGGUAUUAAUAUGGUUAGAAUUGUUCUUACAACUGGUAAUUAUAGUCAAUAGAGAUAAAACAGAUGAUGUACUGACCAACAGAGGAUUGAGCAUCA
# B12: chr4:67617988:67618115:-|3pUTR|ENSG00000033178|unk|total|mutant (ssRNA)
# RNA: GGGAGUUCUACAGUCCGACGAUCAAAUGCCGAAUGUUAAAAAUUAUUGCCCGGGCCGUCUUUUUUUUUUCCAGAAACCUAAUCCGGGUAUUAAAUUUUGUGUUUUUUUUGUUUUUUUUUUUUAAACAGAAGCAUGUUAUUUCACAACAGAGGAUUGAGCAUCA
# B13: ENSG00000118785:stop:overlap|stop_codon|ENSG00000118785|stop_codon|NA|stop_codon (ssRNA)
# RNA: GGGAGUUCUACAGUCCGACGAUCAGUUUCGCAGACCUGACAUCCAGGUAAAUCCUUUAACAGACACACCUGAUGGUUCUGACUAGCGCUCAAGUCUAGGAAACCACAGUUUGCAUAUUCAUUCAUUCAUUCAUCCAUUCAUUCCAACAGAGGAUUGAGCAUCA
# B14: chr4:109463114:109463221:+|CDS|ENSG00000138802|unk|total|mutant (ssRNA)
# RNA: GGGAGUUCUACAGUCCGACGAUCAGGAGCACAGCAGUUGUACAGCAGGGGUCCUCCUGCCCCUCAUAUUGUGGGAUCCACUCCCGGAUCUUUCCAAGGUGCUGCAUCGUCAGCAUCCCAUUUGCAUACGAGUGCCUCCCAACCCAACAGAGGAUUGAGCAUCA
# B15: ENSG00000070961:be:win_4801|3pUTR|ENSG00000070961|bound_else_gene|NA|bound_elsewhere_windowed (ssRNA)
# RNA: GGGAGUUCUACAGUCCGACGAUCCUUGUUUGUAAACAUAAAUAAAUAUGCCCUUUUAUUAAAUAAAUUCAUGGCAAUGUUUUUUUAAAAGACAUUUCAGCUUCUUUACUCAGUUCUGCAUAUACAGUGCAUCAGUCUGUUCUCCAACAGAGGAUUGAGCAUCA
# B16: ENSG00000198589:be:win_8651|3pUTR|ENSG00000198589|bound_else_gene|NA|bound_elsewhere_windowed (ssRNA)
# RNA: GGGAGUUCUACAGUCCGACGAUCUUGCUCAAAGAAGCAAAAUAUUUUUUAAAGUUAUUAAUAAUUGCUAUUUUUGUAGUCUUUGCUUGACUUUUUUGGGGGGGAUUAGCAAAGCAGAAAACUGGCUGCUGGGUUCUGUAGUUUCAACAGAGGAUUGAGCAUCA
# B17: chr12:110381781:110381892:-|CDS|ENSG00000196510|unk|FALSE|unique (ssRNA)
# RNA: GGGAGUUCUACAGUCCGACGAUCAAGGCCAUUCAGCUGAACAGUAAUAGUGUUCAAGCUCUGCUACUUAAGGGAGCAGCACUUAGGAACAUGGGCAGAGUCCAAGAAGCAAUAAUCCACUUUCGGGAGGCCAUACGGCUCGCACAACAGAGGAUUGAGCAUCA
# B18: chrX:8795077:8795420:-|CDS|ENSG00000183304|control|control|control (ssRNA)
# RNA: GGGAGUUCUACAGUCCGACGAUCAGCAGCAGAAGCCGCAGCAGCAGCAGAAGCCGCAGCAGCAGCAGCAGAAGUAAUAGUAGUAGAAGACGAAGAGGAGGAAGAGAAGGAGGAGGAGGAGGAGAAAGAAGAGGAGGAAGAAGACAACAGAGGAUUGAGCAUCA
# B19: ENSG00000132640:stop:overlap|stop_codon|ENSG00000132640|stop_codon|NA|stop_codon (ssRNA)
# RNA: GGGAGUUCUACAGUCCGACGAUCACCUUAUCCCGGCCCCAAACUGGCAGGGUCUUUAUCCCACCAUUAGAGAGAGUAUGUUUUAGCUGUUGGGAGCUCUGUGUUCCAUGCGAUGUUUUACGGAGAACUUGCAGAGGACAAAGACAACAGAGGAUUGAGCAUCA
# B20: chr10:11920118:11920232:-|3pUTR|ENSG00000151461|unk|total|mutant (ssRNA)
# RNA: GGGAGUUCUACAGUCCGACGAUCGCCGUAUAUUCCGUCGGAGAGCACAUCUGUAUGCGACAACUUGAUUACAUCUUUUUUUCCCGCUAUUUUGCAUUUUUUCUUUUACCAUGUUUCAGUUUCUGCAUGCCGAUUUAAAUAAAACAACAGAGGAUUGAGCAUCA
# B21: chr3:66417149:66417250:-|CDS|ENSG00000144749|msi1|FALSE|unique (ssRNA)
# RNA: GGGAGUUCUACAGUCCGACGAUCCAACAAGAUUCGCAGCGUGGAGGGGAGCCAGCUGAAGGCCUACCUUUCCUUAGAAGUGUUAGAUCUGAGUUUGAACAACAUCACGGAAGUGCGGAACACCUGCUUUCCACACGGACCGCCCAACAGAGGAUUGAGCAUCA
# B22: chr13:36848462:36848578:-|3pUTR|ENSG00000120693|unk|FALSE|unique (ssRNA)
# RNA: GGGAGUUCUACAGUCCGACGAUCAAAUACAUAGAAUGUAUACUGUUCUUAUUUUUUUUAAUCACCGUUUGUUUUGUGCUUUCUAGUUAACCUGAUGCCAGUACAGUGCAAUUGGAAAAGCAGGACUUUGGUGCCUGUGCUAUACAACAGAGGAUUGAGCAUCA
# Molecular target: MSI1 full-length (mouse, UniProt Q61474 1-362)
# Assay: nsRBNS (natural sequence RNA bind-n-seq); RBNS binding buffer (assumed for nsRBNS): 25 mM Tris pH 7.5, 150 mM KCl, 3 mM MgCl2, 0.01% Triton X-100, 500 ug/ml BSA, 20 U/ml SUPERase-In, 4 C; UNK is unkempt and MSI1 is Musashi-1; names of the RNAs are library labels; protein concentration not given here; high values mean tight binding
# Sequence of UniProt Q61474 (Q61474 whole entry): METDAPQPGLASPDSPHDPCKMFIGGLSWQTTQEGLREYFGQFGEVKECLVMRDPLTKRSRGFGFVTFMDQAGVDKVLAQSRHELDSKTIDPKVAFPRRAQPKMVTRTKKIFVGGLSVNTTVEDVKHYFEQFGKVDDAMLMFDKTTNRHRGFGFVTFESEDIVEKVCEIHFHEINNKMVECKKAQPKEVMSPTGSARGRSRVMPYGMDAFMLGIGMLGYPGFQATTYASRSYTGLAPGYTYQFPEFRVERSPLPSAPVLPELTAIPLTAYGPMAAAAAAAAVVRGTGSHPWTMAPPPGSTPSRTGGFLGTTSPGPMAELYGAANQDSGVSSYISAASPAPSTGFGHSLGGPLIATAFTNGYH
row,Binder,binding signal
1,B1,0.269 enrichment R
2,B2,0.628 enrichment R
3,B3,0.537 enrichment R
4,B4,0.564 enrichment R
5,B5,1.97 enrichment R
6,B6,0.96 enrichment R
7,B7,0.753 enrichment R
8,B8,0.877 enrichment R
9,B9,0.7 enrichment R
10,B10,0.564 enrichment R
11,B11,17.7 enrichment R
12,B12,0.452 enrichment R
13,B13,0.42 enrichment R
14,B14,0.477 enrichment R
15,B15,1.17 enrichment R
16,B16,2.09 enrichment R
17,B17,0.626 enrichment R
18,B18,1.8 enrichment R
19,B19,0.771 enrichment R
20,B20,0.709 enrichment R
21,B21,0.514 enrichment R
22,B22,3.51 enrichment R
